Source: a collection of fitness landscapes (doi:10.1016/j.celrep.2020.107928)
Over roughly 81,000 sequences, “one-hybrid fitness for binding NBS DNA” has its median near -0.1; the highest 2% begin near 0.36. The list shows a part of the results.

B1: Caulobacter ParB omega fusion; a variant is named by its letters at X, in order, B8GW30 (parent)
chain: MESVVVGEPGMSEGRRGLGRGLSALLGEVDAAPAQAPGEQLGGSREAPIEILQRNPDQPRRTFREEDLEDLSNSIREKGVLQPILVRPSPDTAGEYQIVAGERAWRAAQRAGLKTVPIMVRELDDLAVLEIGIIENVQRADLNVLEEALSYKVLMEKFERTQENIAQTIGKSXSHVANXMRLLXLPDEVQSYLVSGELTAXHARAIAAAADPVALAKQIIEGGLSVRETEALARKAPNLSAGKSKGGRPPRVKDTDTQALESDLSSVLGLDVSIDHRGSTGTLTITYATLEQLDDLCNRLTRGI

Variants of: B1
Experiment: one-hybrid fitness for binding NBS DNA (the Noc-binding site; scaled: cognate 1, non-cognate 0); higher = stronger binding
Details: with NBS DNA site
Summary of the method: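 Bacterial one-hybrid selection in E. coli USO rpoZ- hisB- pyrF- with a HIS3 reporter carrying the site 19 bp from the promoter, screening Caulobacter ParB libraries with four specificity codons randomised (NNS). Cells grew 48 hours at 37°C on M9-minus-histidine plus 0.1 mM IPTG and 5 mM 3-AT. Plasmids before and after selection were Illumina-sequenced, three replicate libraries pooled, and variants under 10 reads dropped. Fitness is the log change in variant-to-wild-type read ratio, rescaled to cognate 1, non-cognate 0.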

Variant | one-hybrid fitness for binding NBS DNA
VKHP | ≤ 0.2
LYHL | ≤ 0.2
EPKM | ≤ 0.2
KNSA | ≤ 0.2
THDM | ≤ 0.2
TPGY | ≤ 0.2
MLHR | ≤ 0.2
ISAR | 0.207
EVHL | ≤ 0.2
YIFT | ≤ 0.2
QYHC | ≤ 0.2
DYDI | ≤ 0.2
KNHS | ≤ 0.2
LVLL | ≤ 0.2
TFVG | ≤ 0.2
TDFR | ≤ 0.2
PNRD | ≤ 0.2
NPHS | ≤ 0.2
SAFL | ≤ 0.2
LRTG | ≤ 0.2
SLCG | ≤ 0.2
TAEI | ≤ 0.2
ESDF | ≤ 0.2
LGYS | ≤ 0.2
KSRS | ≤ 0.2

Variant | one-hybrid fitness for binding NBS DNA
REIR | ≤ 0.2
QPPE | ≤ 0.2
PHMK | ≤ 0.2
QNSP | ≤ 0.2
NTDT | ≤ 0.2
PKQF | ≤ 0.2
KLTR | ≤ 0.2
RRHT | 0.755
YCKA | ≤ 0.2
QDCW | ≤ 0.2
TDRC | ≤ 0.2
LCRG | ≤ 0.2
YRYR | ≤ 0.2
RPGS | ≤ 0.2
KTDE | ≤ 0.2
YLTA | ≤ 0.2
PLSE | ≤ 0.2
WKAC | ≤ 0.2
DLLT | ≤ 0.2
LSIL | ≤ 0.2
TIFG | ≤ 0.2
QEMI | ≤ 0.2
KTIL | ≤ 0.2
GHIG | ≤ 0.2
RNGA | ≤ 0.2

Variant | one-hybrid fitness for binding NBS DNA
AYTY | ≤ 0.2
WGKE | ≤ 0.2
LLGT | ≤ 0.2
QADG | ≤ 0.2
MFAL | ≤ 0.2
HILG | ≤ 0.2
IHLS | ≤ 0.2
KHMS | ≤ 0.2
IQPR | ≤ 0.2
FCLW | ≤ 0.2
EGLG | ≤ 0.2
QRMH | 0.499
CFFL | ≤ 0.2
AYHI | ≤ 0.2
NSVG | ≤ 0.2
RVYQ | ≤ 0.2
NNPK | ≤ 0.2
SRNS | ≤ 0.2
RSPV | ≤ 0.2
TLEE | ≤ 0.2
GLCL | ≤ 0.2
DWNC | ≤ 0.2
MPVQ | ≤ 0.2
YRQE | ≤ 0.2
HPWM | ≤ 0.2

Variant | one-hybrid fitness for binding NBS DNA
SSQN | ≤ 0.2
LMNC | ≤ 0.2
TSRI | ≤ 0.2
PTGR | ≤ 0.2
EQYS | ≤ 0.2
TSLS | ≤ 0.2
LDFS | ≤ 0.2
SKHG | ≤ 0.2
KLTD | ≤ 0.2
ATFC | ≤ 0.2
LGSR | ≤ 0.2
YIRT | ≤ 0.2
TKLH | ≤ 0.2
SPGF | ≤ 0.2
QHMV | ≤ 0.2
PASP | ≤ 0.2
NRTH | ≤ 0.2
STVY | ≤ 0.2
CRAV | ≤ 0.2
QVFL | ≤ 0.2
VMLE | ≤ 0.2
PYKI | ≤ 0.2
GYLI | ≤ 0.2
SCYW | ≤ 0.2
KDTT | ≤ 0.2

Variant | one-hybrid fitness for binding NBS DNA
HRNG | ≤ 0.2
PVKR | ≤ 0.2
HRVM | ≤ 0.2
LSSE | ≤ 0.2
LYQL | ≤ 0.2
HHIT | ≤ 0.2
NDTL | ≤ 0.2
HLKP | ≤ 0.2
NSNL | ≤ 0.2
EGCI | ≤ 0.2
ALAW | ≤ 0.2
RHTW | ≤ 0.2
SSHM | ≤ 0.2
AHPR | ≤ 0.2
QYRW | 0.26
QQPR | 0.365
IPPN | ≤ 0.2
QRAM | 0.404
ANQN | ≤ 0.2
AKIK | ≤ 0.2
NLNI | ≤ 0.2
RDIE | ≤ 0.2
WVLA | ≤ 0.2
LFTG | ≤ 0.2
PCQV | ≤ 0.2

Variant | one-hybrid fitness for binding NBS DNA
FSSS | ≤ 0.2
EDTL | ≤ 0.2
KALN | ≤ 0.2
LTFI | ≤ 0.2
VAQR | ≤ 0.2
ELKF | ≤ 0.2
HWMG | ≤ 0.2
NIEV | ≤ 0.2
HTIT | ≤ 0.2
HPQK | ≤ 0.2
PTQH | ≤ 0.2
KSSP | ≤ 0.2
AQRH | ≤ 0.2
GNLV | ≤ 0.2
LTKY | ≤ 0.2
TGVA | ≤ 0.2
QQGE | ≤ 0.2
CAPW | ≤ 0.2
PQST | ≤ 0.2
QTAT | 0.595
RMRC | 0.339
LCLG | ≤ 0.2
RMEM | ≤ 0.2
SFYG | ≤ 0.2
FPPK | ≤ 0.2

Variant | one-hybrid fitness for binding NBS DNA
TYIP | ≤ 0.2
TLKC | ≤ 0.2
DPQS | ≤ 0.2
QRFY | 0.392
TVST | ≤ 0.2
WLFG | ≤ 0.2
QHAK | ≤ 0.2
EQHV | ≤ 0.2
IGGS | ≤ 0.2
DRGT | ≤ 0.2
STHC | ≤ 0.2
VAQV | ≤ 0.2
PICC | ≤ 0.2
EHVL | ≤ 0.2
QNCM | ≤ 0.2
CLSR | ≤ 0.2
GGYS | ≤ 0.2
LAKC | ≤ 0.2
IMNC | ≤ 0.2
ADRK | ≤ 0.2
EFDG | ≤ 0.2
PIGV | ≤ 0.2
VMTW | ≤ 0.2
MRLY | ≤ 0.2
HHEK | ≤ 0.2

Variant | one-hybrid fitness for binding NBS DNA
SRTR | ≤ 0.2
PELG | ≤ 0.2
QIDF | ≤ 0.2
DPYY | ≤ 0.2
KESY | ≤ 0.2
VQNV | ≤ 0.2
SLAT | ≤ 0.2
IPDC | ≤ 0.2
QTPM | ≤ 0.2
CHSG | ≤ 0.2
GFNY | ≤ 0.2
DMHE | ≤ 0.2
ITGS | ≤ 0.2
AIRT | ≤ 0.2
IRPR | ≤ 0.2
CVAQ | ≤ 0.2
PRPY | ≤ 0.2
HIRG | ≤ 0.2
PAKI | ≤ 0.2
GCGL | ≤ 0.2
